Over roughly 33,000 sequences, “E-score (dimensionless, -0.5 to 0.5)” has its median near -0.058; the highest 2% begin near 0.35. Some of the results follow.
test system: MvaT; test: PBM 8-mer E-score (mean of HK and ME arrays) (E-score (dimensionless, -0.5 to 0.5)); higher = stronger relative binding preference; most listed sequences are background and not binding sites
Outline: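 Full-length P. aeruginosa MvaT, with glutathione S-transferase fused to its N-terminus (cloned into pTH6838 by isothermal assembly), was tested by protein binding microarray using a previously described protocol. Two universal double-stranded 60-mer arrays (ME and HK) were used, each with a constant 25-mer primer region and a variable 35-mer region covering all 8-mers. The rank-based 8-mer E-score (-0.5 to 0.5) is the mean of the two arrays, parsed with a custom Python script.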

Sequence | PBM 8-mer E-score
GCATGGTA | -0.0267
CCATATGA | 0.0677
ATAGAGGC | -0.0972
ATTCAGGA | 0.0538
CGAACAAA | 0.165
TATTCGCA | 0.306
CTTTTCGA | 0.0489
GTATCGAA | -0.0719
ATCTCCTG | -0.149
GACCTCAA | -0.134
CAGCGAAG | -0.0198
CCCACCGC | 0.000846
TCTCTAAA | -0.131
GCACGCCA | -0.165
ATTGTTCG | 0.209
CAACCGAG | -0.149
GCTCGAAA | -0.0703
GCGGCGCC | -0.224
CCTCCTGC | -0.298
AACCTTGG | -0.174
CGCATTAA | 0.188
ACCACCGA | -0.0393
CGACAAAA | 0.228
CTGGACAA | -0.0325
CAACCCAG | -0.151

Sequence | PBM 8-mer E-score
AGAGGACC | -0.191
CTTTTGGA | -0.0848
CCGATACC | -0.187
TCCAGAGA | -0.13
TCAATAAA | 0.22
AGTGCGAT | 0.119
TCTGCCCA | -0.179
GGTTTTGA | 0.0286
GGTTCAGA | -0.252
ACCATCTC | -0.0746
CCCTCACA | -0.151
GAGGTTGA | -0.185
CGGTTAAA | 0.185
ACTGCATC | -0.0676
ATTATAAA | 0.462
CCTAGCGA | -0.163
CAGACCAC | -0.118
TACCGAGA | -0.116
AAGCCCCG | -0.182
AATTTGAC | 0.185
GACTCAGA | -0.118
GCAGAGAC | -0.251
GAGTACGC | -0.192
TTGAGCAA | 0.0965
AATCCCTG | -0.0656

Sequence | PBM 8-mer E-score
ATGAGGTG | 0.00708
TGGACACA | -0.0605
GCAGGGTA | -0.137
AGTCGATG | -0.108
AAGCCAGT | 0.0245
ACGATAAC | 0.218
ACTACACT | 0.196
ATCGCTCG | -0.0585
ACTGGAAC | 0.0906
TTTATAAA | 0.411
GAGGCAAA | -0.068
CGATGATC | -0.0902
ATGTCACG | -0.0289
ACTCGCGG | -0.158
AGGGAGGC | -0.349
AAGACGAG | -0.0162
GTGGCCAC | -0.237
AGCGTTGA | -0.0483
GACGGTGC | -0.172
AGGGCGCC | -0.232
CATACGGC | -0.244
GATATAGA | 0.206
AATCATCC | -0.227
AAACCGTA | -0.14
ATTCGCTA | 0.115

Sequence | PBM 8-mer E-score
CGATAGCA | -0.0638
ATGATCTA | -0.14
CTCATCAA | -0.0702
ACGGTTGG | -0.0398
CTCAACCA | -0.172
CGACCCCA | -0.232
AGGCTAGA | -0.132
CCTTCTAG | -0.098
CTGTCTGC | -0.135
ACCAGTAC | -0.0114
ACTAGGCT | -0.105
CACGCACC | -0.225
AGTGGAAC | -0.0294
CTGGGTAC | -0.214
AGCGAACC | -0.0433
AGGTCACT | -0.188
ACGGTAGG | -0.138
TCCGTAGA | -0.0646
TAAACCTA | 0.0436
CAGGCTTA | -0.142
CCGCTCTA | -0.0877
AGGAGGAC | -0.396
CATAGTTC | 0.0955
CGAACACC | -0.0813
CAATGGGG | -0.0783

Sequence | PBM 8-mer E-score
CTGGGGGA | -0.235
ATATAATC | 0.415
AACCACGG | -0.089
GCATGGCC | -0.339
GCCTTCCC | -0.295
TCGTACGA | -0.073
CGGCATTA | 0.122
ATTGGGCC | -0.222
CCCAGCGG | -0.35
ACAGTCCG | -0.108
ACCCTATG | -0.0632
CGTATTAA | 0.35
GCGGGGCC | -0.322
CAGCCCAC | -0.188
ACTCTCGA | -0.0374
AGCTAGGG | -0.32
CTTCTTAC | 0.13
AAAGCTGT | 0.0499
GCCAATAA | 0.299
ACTAAGTC | 0.0745
TATAAAGA | 0.327
CCCGGCCC | -0.325
ACTATCGC | -0.0202
AACCTACC | -0.156
AACCATCC | -0.129

Sequence | PBM 8-mer E-score
AATGAACG | -0.0946
AATACGAG | 0.13
AACAAAAT | 0.35
CAGGCTCC | -0.16
ACGGAAGA | -0.136
ATACACCG | 0.0127
ATATTATA | 0.477
ATTTAGAA | 0.321
CCGTACCG | -0.26
CGGCCTGA | -0.228
AAGCGGCC | -0.192
CTAGACCA | -0.219
CTGGTCAA | -0.151
CACGAGCG | -0.271
GGACCCAC | -0.163
CAGTGTAA | 0.136
GGCACAAA | -0.0263
GACAAAGA | 0.0678
CTACGACC | -0.278
AGCTCCGG | -0.267
CACTCCTC | -0.138
GAGGATGA | -0.209
AGACCATC | -0.15
CAGGTCTA | -0.0964
AACCATTA | 0.184

Sequence | PBM 8-mer E-score
AGGAGCTC | -0.204
CCGGTCTA | -0.152
AACGGAAA | 0.0899
CAGGCCCG | -0.31
CACTCACG | -0.138
ACATACTG | 0.122
ATAATACG | 0.354
CGGTGCTC | -0.288
GTCCAGCA | -0.19
AGTCTCGA | 0.0471
CTTCTCCC | -0.188
AGAAATCG | -0.0832
GACTCATA | -0.0591
CGGCGCTC | -0.294
TCGCGTAA | 0.139
CTGATACC | -0.125
CTAATGAA | 0.132
AAAGATAG | 0.2
AACGCATC | -0.0129
AAGTCTCA | 0.0489
ACTAACAC | 0.148
AGTTAAGC | 0.0938

Source: the supplement of paper PMC4466236
